Data reported in patent US12622899B2 (PureTech LYT 100, Inc., priority 2018, dated 2026).

What was measured:
[1] = Crossover study Part 1: PK of LYT-100 850 mg BID vs pirfenidone 801 mg TID; format: in vivo, human; conditions: fed
Excerpt: Over encapsulation was utilized to match TID dosing for pirfenidone and to match the number of LYT-100 capsules administered for each dose. Thus, during LYT-100 treatment, the mid-day dose was placebo.
Approximately forty older healthy female and male adult subjects (1:1 target ratio) were randomized into 1 of 2 cohorts:Cohort 1 or Cohort 2, N=20 subjects per cohort; minimum of 8 per sex per cohort. Subjects in each cohort were randomized to treatment sequence as follows: Sequence A: Pirfenidone to LYT-100; Sequence B: LYT-100 to pirfenidone. Dosing is outlined in Table 1. A graphical illustration of the study design for Part 1 is provided as FIG. 2.
(§1) The study is blinded with a placebo mid-day dose for LYT-100 to match TID pirfenidone dosing. There was a single AM fasting dose on Day 4 for both drugs. There was a 6-day wash-out period between drug cross-over.
Blood samples for PK were collected for Cohorts 1 and 2 at specified times during both periods, as follows: • Days 1 & 11:0 (pre-morning dose) • Days 2 & 12: no sampling. • Days 3 & 13:0 (pre-morning dose), and 1, 2, 3, 4, 6 (pre-mid-day dose), 7, 8, 9, 10, 12 (pre-evening dose), 13, 14, 15, 16, and 17 hours post-morning dose • Days 4 & 14:0 (pre-morning dose), and 1, 2, 3, 4, 6 (post-dose), […]
Urine samples for analysis of excretion in urine were collected, separated by specified time interval, and analyzed. […]

older, healthy subjects = experiment: Crossover study Part 1: safety and tolerability (TEAEs); format: in vivo, human; conditions: for serious adverse events: LYT-100 850 mg BID / pirfenidone 801 mg TID; for incidence of gastrointestinal AEs / incidence of nervous system AEs: LYT-100 850 mg BID / pirfenidone 801 mg TID (FIG. 6B)
[2] = PK modelling / bioequivalence simulation of LYT-100 doses vs pirfenidone 801 mg TID (pooled data); set-up: species or system human
Protocol: PK modeling data incorporated the results of various MAD PK studies to reduce variability inherent in multiple studies of small sample size.
as §1
Using the foregoing crossover data, a further simulation was performed. […] These ratios were then assessed using the same process described in Chow (Design and Analysis of Bioavailability and Bioequivalence Studies; Chapman & Hall/CRC Biostatistics Series, Chapman; Hall/CRC 2008) and the CDER (Guidance for Industry Statistical Approaches to Establishing Bioequivalence Center for Drug Evaluation and Research [CDER], FDA, 2001).
Bioequivalence simulations were performed for AUC24ss across this dosing study and three prior dosing studies. […] The results of the simulations across this study and three prior studies is provided in tabular form in FIG. 18.

[3] = system: patients with Idiopathic Pulmonary Fibrosis (IPF); experiment: IPF trial Part A (26-week double-blind): efficacy, FVC and FVCpp, time to progression; format: in vivo, human
Protocol: The primary objective was to determine the dose(s) to carry into Phase 3. […] Patients were randomized to one of the four treatments in a 1:1:1:1 ratio and stratified based on prior exposure to nintedanib (<6 months) versus nintedanib-naïve patients. Patients who completed the Double-blind Treatment Period (Part A) were offered participation in the Long-term Extension (Part B). […] For patients who participated in Part B, the follow-up was conducted at the end of Part B. A graphical illustration of an embodiment of the trial design is provided as FIG. 24B.
Doses were adjusted according to safety and tolerability to avoid toxicity.
Note that, for all treatment groups, the first 7 days of treatment, one capsule was taken TID., Day 8 through Day 14, two capsules TID., and Day 15 forward, 3 capsules TID.
Weekly home FVC was assessed with an individual spirometer, which was supplied to each patient. The site used its own equipment for in-clinic FVC assessments. Spirometry measurements were performed according to the American Thoracic Society/European Respiratory Society (“An Official American Thoracic Society and European Respiratory Society Technical Statement Technical Statement” Am J Respir Crit Care Med. 2019; 200(8):e71-e83) and the study specific Pulmonary Function Manual, at timepoints specified in the Schedule of Assessments. Spirometry was conducted while the patient was in a seated position. The test was done in order to achieve three acceptable FVC measurements (three curves to be provided), and the best result selected according to the guidelines. The best of three efforts was defined as the highest FVC, obtained on any of the three blows meeting the ATS/ERS/JRS/ALAT 2019 criteria (Graham et al, 2019) with preferably a maximum of eight attempts.
Pulmonary function was measured in a standardized manner and results transmitted electronically during the visit immediately after performing the spirometry and evaluated by a central reader. In case the acceptability and repeatability criteria as specified by ATS/ERS/JRS/ALAT guidelines were not met, a repeat spirometry was performed during the same visit.
The primary efficacy endpoint was the rate of decline in FVC mL over 26 weeks. In addition, decline in FVC % predicted from baseline to Week 26 and by >10% and >5% was assessed.
The secondary endpoint was comparison of FVC % predicted change from baseline to Week 26.
The following parameters were measured or calculated as part of the spirometry assessment: • FVC (mL) and FVC % predicted (FVCpp) • FEV1 (mL) and percent predicted forced expiratory volume in 1 second (FEV1% p) • FEV1/FVC ratio • Forced expiratory flow between 25% and 75% of exhaled volume (FEF25-75) The ‘2012 Global Lung Function Initiative Equations’ was used to calculate the predicted values (Quanjer et al, “Multi-ethnic reference values for spirometry for the 3-95 year age range: the global lung function 2012 equations: Report of the Global Lung Function Initiative (GLI), ERS Task Force to establish improved Lung Function Reference Values.,” Eur Respir J, vol. 40(6), pp. 1324-1343, 2012). […]

[4] = LYT-100 825 mg BID (1650 mg daily), extrapolated (FIG. 5)
[5] = 26 weeks, pirfenidone 801 mg TID

[2H]C([2H])([2H])c1ccc(=O)n(-c2ccccc2)c1 [LYT-100, 5-(methyl-d3)-1-phenylpyridin-2-(1H)-one]
steady-state AUC as % of pirfenidone 801 mg TID [1]: 102% | steady-state Cmax as % of pirfenidone 801 mg TID [1]: 104% | serious adverse events (older, healthy subjects): no serious adverse events | incidence of gastrointestinal AEs (older, healthy subjects): 37.1% | incidence of nervous system AEs (older, healthy subjects): 45.7% | steady-state Cmax as % of pirfenidone 801 mg TID ([2]; LYT-100 550 mg TID, extrapolated/predicted (FIG. 4, FIG. 5)): 67.4% | steady-state Cmax as % of pirfenidone 801 mg TID [2, 4]: 101.1% | steady-state exposure (AUC) as % of pirfenidone 801 mg TID [2, 4]: 98.5% | predicted Cmax, % higher than Cmax of pirfenidone 801 mg TID ([2]; LYT-100 825 mg TID): 15% | steady-state systemic exposure as % of pirfenidone 801 mg TID ([2]; LYT-100 850 mg BID, from earlier PK crossover study): about 102% | effect size greater than pirfenidone 801 mg TID (FVC and FVCpp) ([3]; LYT-100 825 mg TID): approximately 50%

Cc1ccc(=O)n(-c2ccccc2)c1 [Pirfenidone, pirfenidone, reference compound]
serious adverse events (older, healthy subjects): no serious adverse events | incidence of gastrointestinal AEs (older, healthy subjects): 29.7% | incidence of nervous system AEs (older, healthy subjects): 35.1% | FVC, Bayesian Posterior Mean Difference vs. Placebo [3, 5]: 60.4 mL | FVC, Frequentist Adjusted Mean Difference vs. Placebo [3, 5]: 60.9 mL | FVCpp, Bayesian Posterior Mean comparison vs. Placebo [3, 5]: 1.81 | FVCpp, Frequentist Adjusted Mean comparison vs. Placebo [3, 5]: 1.97 | Treatment effect, FVC, versus placebo [3, 5]: 54.1% | Treatment effect, FVCpp, versus placebo [3, 5]: 57.4% | Treatment effect, FVC, versus placebo ([3]; 26 weeks, pirfenidone 801 mg TID, listed as pirfenidone): 54.1% | Cohen's D, FVC ([3]; pirfenidone 801 mg TID): 0.27 | Cohen's D, FVCpp ([3]; pirfenidone 801 mg TID): 0.29 | Change from Baseline in FVC over 26 Weeks, Bayesian Posterior Mean (SE) ([3]; pirfenidone 801 mg TID, N=61): −50.4 (28.33) mL | Change from Baseline in FVC over 26 Weeks, Frequentist Adjusted Mean (SE) ([3]; pirfenidone 801 mg TID, N=61): −51.6 (29.13) mL | Change from Baseline in FVCpp over 26 Weeks, Bayesian Posterior Mean (SE) ([3]; pirfenidone 801 mg TID, N=61): −1.45 (0.89) | Change from Baseline in FVCpp over 26 Weeks, Frequentist Adjusted Mean (SE) ([3]; pirfenidone 801 mg TID, N=61): −1.46 (0.881) | Change from Baseline in FVC over 26 Weeks, Frequentist Adjusted Mean (SE) ([3]; pirfenidone 801 mg TID, N=61, listed as pirfenidone): -51.6 mL
